Source: PubChem BioAssay AID1240 (Sanford-Burnham Center for Chemical Genomics, 2008)
In all, about 50,000 compounds went through this assay and about 800 (1.6%) showed an effect of 50% or more. The list shows a part of the results.

The molecules below were run against Bcl-2-like protein 10 (Homo sapiens) (UniProt Q9HD36) (assay: TR3 peptide-Bcl-B binding displacers, biochemical primary FP assay, phenotype converters (AID 1240;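 also: 0% = Bcl-B with tracer peptide and DMSO and 100% = tracer peptide lacking Bcl-B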)). Settings: GST-Bcl-B / FITC-TR3 peptide fluorescence polarization; stronger effect = higher value; compound at 3.75 mg/L.
UniProt Q9HD36, sequence (Q9HD36 whole entry, looked up): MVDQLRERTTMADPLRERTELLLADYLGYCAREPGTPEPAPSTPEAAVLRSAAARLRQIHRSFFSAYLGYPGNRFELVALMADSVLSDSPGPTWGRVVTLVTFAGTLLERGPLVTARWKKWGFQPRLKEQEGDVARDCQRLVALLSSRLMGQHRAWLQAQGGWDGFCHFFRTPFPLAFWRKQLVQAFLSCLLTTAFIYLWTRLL

In order of falling displacement:
1. O=C1/C(=C\c2ccc3c(c2)OCO3)N=C(c2ccccc2)N1c1ccc(F)cc1  179%
2. CC(=O)Nc1cccc(-c2nc3cc(C)ccc3o2)c1C  99.7%
3. CCOC(=O)c1ccc(N/C=C/C(=O)c2ccc(Cl)cc2)cc1  59.8%
4. Cc1ccc(-c2ccc(-c3nnc(N)o3)s2)s1  45.5%
5. CCN(CC)c1ccc(/C=C2/C(=O)NN(c3ccc(C)cc3)C2=O)c(O)c1  23.1%
6. N#Cc1ccccc1N=Cc1ccc(Cl)cc1Cl  19.9%
7. CCO/C=C1\C(=O)N(CC)c2ccccc21  19.1%
8. COC(=O)c1cc(NC(=O)c2cc3ccccc3o2)cc(C(=O)OC)c1  18.4%
9. Cc1ccc(C2/C(=C(/O)c3ccccc3)C(=O)C(=O)N2c2cccc(C)c2)cc1 (stereo not given)  18.1%
10. O=C(c1ccc(OCc2ccccc2)cc1)N1CCN(c2ccc([N+](=O)[O-])cc2)CC1  17.9%
11. CC1=C(C)CC(C(=O)NCCc2ccccc2)C(C(=O)O)C1 (stereo not given)  16.6%
12. CCOC(=O)c1ccc(NC(=O)c2ccc(OCC(C)C)cc2)cc1  15.2%
13. O=C(Nc1ccc2oc(-c3ccccc3)nc2c1)c1ccccc1I  13.5%
14. COc1ccc(CCn2c(O)c(/C=C3/C=c4ccccc4=NC3=O)sc2=S)cc1OC  13.2%
15. CN1C(=O)C(=Cc2ccc(-c3cc([N+](=O)[O-])ccc3O)o2)C(=O)N(C)C1=O  12.7%
16. Cc1cc(OCCCCn2ccnc2)cc(C)c1Cl  12.6%
17. O=C(Nc1ccccc1)c1ccc(NS(=O)(=O)c2ccc(Br)cc2)cc1  12.3%
18. COC(=O)c1c(-c2ccc(Cl)cc2)csc1NC(=O)C1CC=CCC1C(=O)O (stereo not given)  12.3%
19. O=C(Nc1ccc(OC(F)(F)F)cc1)c1nn2c(c1Br)NC(c1cccs1)CC2C(F)(F)F (stereo not given)  12.3%
20. CCOC(=O)c1ccc(NC(=O)c2cc(Cl)c(OC)c(Cl)c2)cc1  11.6%
21. O=c1c2c(nc3cc(-c4cccc(F)c4)[nH]n13)CCCC2  11%
22. COc1ccc(Cl)cc1C(=O)Nc1ccc(Br)cc1  10.8%
23. CCOc1ccccc1NC(=O)c1ccc(CN2CCc3ccccc3C2)cc1  10.7%
24. CCCCOc1ccc(C(=O)Nc2ccc(-c3nc4ncccc4o3)cc2)cc1  10.6%
25. CCC1Nc2ccc(C)cc2C(Nc2ccc(C)cc2)C1C (stereo not given)  10.4%
26. NC(=O)CCSc1ccc(Cl)cc1  9.8%
27. CC(C(=O)O)N1C(=O)/C(=C/c2ccc3c(c2)OCO3)SC1=S (stereo not given)  9.1%
28. O=C1c2ccccc2C(=O)N1CCSc1ncn[nH]1  8.8%
29. Cc1cc(C)nc(NS(=O)(=O)c2ccc(NS(=O)(=O)c3ccc4c(c3)C(=O)c3ccccc3-4)cc2)n1  8.4%
30. O=C(COc1cccc2ccccc12)NCc1cccnc1  8.3%
31. Cc1cc(/C=C2\C(=O)NC(=O)N(c3ccc4c(c3)OCO4)C2=O)c(C)n1-c1ccc(F)cc1  8%
32. Cc1cccc(OCCN2CCOCC2)c1  7.8%
33. COCCOC(=O)c1c(C)oc2ccc(OC(=O)c3ccc(OC)c(OC)c3)cc12  7.8%
34. COC(=O)C1=NN(C(=O)OC(C)(C)C)C(O)(C(C)(C)C)C1 (stereo not given)  7.6%
35. Cc1ccc2ccc(S(=O)(=O)n3nnc4ccccc43)cc2c1  7.2%
36. COc1c(Cl)cc(C(=O)Nc2ccc(F)c([N+](=O)[O-])c2)cc1Cl  7%
37. COc1ccc(S(=O)(=O)N2CCN(Cc3cccc(Cl)c3)CC2)cc1  6.8%
38. CC(O)c1cccc(NC(=O)c2nn3c(c2Cl)NC(c2cccs2)CC3C(F)(F)F)c1 (stereo not given)  6.1%
39. N#CC1C(=S)N=C2CCCCC2=C1c1cccs1 (stereo not given)  5.7%
40. O=[N+]([O-])c1ccc(N2CCNCC2)cc1Sc1cccc2cccnc12  5.7%
41. COc1cccc(/C=C/c2nc3ccccc3c(=O)[nH]2)c1O  4.9%
42. CC(=O)c1ccc(NC(=O)Nc2ccccc2C)cc1  4.6%
43. Cc1ccccc1NS(=O)(=O)c1ccc2c(c1)C(=O)c1cc(S(=O)(=O)Nc3ccccc3C)ccc1-2  4.5%
44. O=C(NCCN1CCOCC1)c1nn2c(C(F)(F)F)cc(-c3ccc(Br)cc3)nc2c1Cl  4.5%
45. CC(=Nc1ccc(N)cc1)C1=C(O)c2ccccc2C1=O  3.9%
46. CC1CC(Nc2ccccc2)c2ccccc2N1C(=O)NC1CCCCC1 (stereo not given)  3.9%
47. O=C1c2ccccc2C(=O)C1(Nc1ccc(I)cc1)c1ccccc1  3.7%
48. COc1ccc(O)c(C2=Nc3ccccc3N=C(C(F)(F)F)C2)c1  3.6%
49. CCN(CC)S(=O)(=O)c1ccc(Cl)c(C(=O)Oc2ccc([N+](=O)[O-])cc2)c1  3.3%
50. C=CCN1C(=O)/C(=C\c2ccc(-c3ccc([N+](=O)[O-])cc3)o2)SC1=S  3.3%
51. CC(=O)NS(=O)(=O)c1ccc(NC(=O)Cc2ccccc2)cc1  3.2%
52. O=C(Nc1ccc(O)cc1)c1ccc(Oc2ccc([N+](=O)[O-])cc2)cc1  3.2%
53. CC1=C(C(=O)OCCOc2ccccc2)C(c2ccccc2[N+](=O)[O-])NC(=O)N1C (stereo not given)  2.9%
54. c1cc(NCc2ccc3c(c2)OCO3)cc(-c2nc3ccccc3o2)c1  2.8%
55. O=C(Nc1ccc(N2CCOCC2)c(Cl)c1)c1ccc([N+](=O)[O-])cc1Cl  2.5%
56. CCCCNC(=O)C(=O)NCCCOC  2.3%
57. COc1cccc(OC)c1C(=O)Nc1ccc(C)cc1Br  1.9%
58. CCCSc1nsc(SCCC)c1C(=O)O  1.8%
59. O=C(NC(=S)NC1CCSC1=O)c1ccco1 (stereo not given)  1%
60. CCOC(=O)CNC(=O)C(CC)CC  1%
61. CCc1ccccc1NC(=O)CN(c1ccccc1OC)S(=O)(=O)c1ccccc1  0.6%
62. Cc1ccc(N2C(=O)C3C(C2=O)C2(C)C(=O)C3(C)C(c3ccccc3)=C2c2ccccc2)cc1C (stereo not given)  0.2%
63. Cc1ccc(NC(=O)c2ccc(-c3ccc(Br)cc3)o2)c([N+](=O)[O-])c1  0.1%
64. Cc1cc(F)c(F)cc1C(=O)N1CCN(c2cc(N3CCCCC3)c(F)cc2[N+](=O)[O-])CC1  0%
65. COC(=O)c1c(-c2ccc(F)cc2)csc1NC(=O)C1CCCCC1C(=O)O (stereo not given)  -0.2%
66. COc1ccc(OCC(=O)NC2CC(C)(C)NC(C)(C)C2)cc1  -0.7%
67. Cc1ccc(/C=C/C(=O)Nc2ccc(F)cc2F)o1  -0.7%
68. CCCOc1ccc(CN(C)C)cc1CN(C)C  -0.9%
69. Cn1c(=O)c2c(nc(N/N=C/c3ccccc3Cl)n2Cc2ccccc2)n(C)c1=O  -0.9%
70. CC1=C(C(=O)Nc2ccccc2)C(c2ccccc2Br)NC(=O)N1 (stereo not given)  -1.2%
71. CC1=C(C(=O)OCc2ccccc2)C(c2cccc(Cl)c2Cl)C2=C(CCCC2=O)N1 (stereo not given)  -2.1%
72. COc1ccc(S(=O)(=O)NCc2ccccc2C)cc1OC  -2.5%
73. Cc1ccc(NC(=O)C2CCCCC2C(=O)O)nc1 (stereo not given)  -2.8%
74. CC(C)(C)c1ccc(CSc2nnnn2-c2ccccc2)cc1  -3%
75. CC(C)(C)OC(=O)NNC(=O)c1ccco1  -3.1%
76. COc1ccc2oc(=O)c(-c3csc(N/N=C/c4ccco4)n3)cc2c1  -3.1%
77. CC(=O)Nc1ccc(OC(=O)c2ccc([N+](=O)[O-])cc2)cc1  -3.2%
78. C=CCOc1ccc(/C=C2/C(=O)NC(=S)N(CC=C)C2=O)cc1OCC  -3.3%
79. Cc1cccc(OC(=O)COc2ccc(Cl)cc2Cl)c1  -3.3%
80. COc1cc(Oc2ccccc2)nc(N)n1  -3.3%
81. CC1(C)CC(=O)C2=C(C1)Nc1ccccc1N(C(=O)c1ccc(Cl)cc1)C2c1ccccn1 (stereo not given)  -3.4%
82. CCc1ccccc1N(CC(=O)Nc1ccccc1Br)S(C)(=O)=O  -3.5%
83. COc1ccc(-c2cc(C(=O)OC(C)C)c3cc(Br)ccc3n2)cc1  -3.9%
84. COC(=O)c1ccccc1NC(=O)CCOc1ccccc1  -4%
85. CC(=O)Nc1ccc(N2C(=O)c3ccc(C(=O)c4cccc([N+](=O)[O-])c4)cc3C2=O)cc1  -5.3%
86. Cc1ccc(C(=O)c2c(N)sc3c2CCCC3)cc1  -5.3%
87. CC(=O)C(=Cc1cc(C(C)(C)C)c(O)c(C(C)(C)C)c1)C(C)=O  -5.3%
88. O=C(O)CCC(=O)Nc1ccc(NC(=O)CCC(=O)O)cc1  -5.6%
89. CCOc1c(Cl)cc(C=C2C(=O)NC(=O)NC2=O)cc1Cl  -5.7%
90. Cc1c(Cc2ccccc2)c(=O)n2c([nH]c3ccccc32)c1C#N  -6%
91. Cc1ccc(Cl)cc1NC(=O)C(=O)NN=C1CCN(C)CC1  -6.6%
92. CCOC(=O)c1c(NC(=O)c2ccc(C)c([N+](=O)[O-])c2)sc(C(=O)Nc2ccccc2OC)c1C  -6.7%
93. O=C1CC2c3ccccc3C1C1C(=O)N(c3ccccc3)C(=O)C21 (stereo not given)  -6.8%
94. Cc1cc(C(=O)N2CCN(c3ccc(Cl)cc3)CC2)ccc1[N+](=O)[O-]  -6.9%
95. O=c1c2ccccc2nc(/C=C/c2ccccc2[N+](=O)[O-])n1-c1cccc2ccccc12  -7%
96. CC(C)(C)c1nc(Cc2ccc([N+](=O)[O-])cc2)no1  -7.4%
97. NC1=NC(=O)/C(=C\c2cccc(OCc3ccccc3)c2)S1  -8.3%
98. Cc1cc(C)n(C(=O)c2cccs2)n1  -8.6%
99. O=C1OC(c2ccc(Cl)cc2)=C/C1=C\c1cccs1  -8.7%
100. Cc1cccc(NC(=O)C(=O)NCCC(C)C)c1C  -9.7%
101. CCOc1cc(C(=O)N2CCc3ccccc3C2)cc(OCC)c1OCC  -9.7%
102. CCOc1ccc(C(=O)Nc2ccc([N+](=O)[O-])cc2)cc1Cl  -9.7%
103. COc1ccc2c(c1OC)C(=O)N(c1cccc(C)c1)C2  -10.2%
104. O=C(/C=C/c1ccccc1)Nc1ccccc1C#Cc1ccccc1  -11.6%
105. Cc1ccccc1C(=O)N1CCN(Cc2ccccc2)CC1  -12.3%
106. C=C(Br)Cn1c(COc2ccccc2)nc2ccccc21  -13.5%
107. Cc1cc(/C=N/n2cnnc2)c(C)n1-c1ccc(F)cc1  -18%
108. N#C/C(=C/c1cccc(F)c1)C(=O)Nc1cccc(Br)c1  -19.5%
109. CCOC(=O)C1=NN(C(=O)c2ccncc2)C(O)(C(C)(C)C)C1 (stereo not given)  -22.6%
110. Cc1cc(=O)[nH]c(-n2nc(C)c(Oc3ccccc3O)c2C)n1  -23.7%
